Broadly, the inhibition is the change of the read-out against control, counted positive when it falls.

Screen size: about 340,000 compounds; about 6,900 (2%) were called active. No stated cut-off is given here; in the data, active means inhibition above about 30%; inactive means below that, where a call was filed. Only a part is listed here, and it is no random draw. Entries without a call were filed so in the source.

In this assay the target is D(2) dopamine receptor (Homo sapiens) (UniProt P14416). Put plainly: HTS Assay for Allosteric Antagonists of the Human D2 Dopamine Receptor: Primary Screen for Antagonists. Further: 0% is about no effect. Particulars: HEK293 TREx D2 cells, calcium flux, dopamine EC80; at 10 µM; stronger effect = higher value. In short, it runs like this: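 Antagonism is scored as inhibition of an EC80 dopamine-evoked calcium signal in a force-coupled, tetracycline-inducible HEK293 T-REx D2 line, with compound present 180 s before agonist.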
UniProt P14416, sequence (P14416 whole entry, looked up): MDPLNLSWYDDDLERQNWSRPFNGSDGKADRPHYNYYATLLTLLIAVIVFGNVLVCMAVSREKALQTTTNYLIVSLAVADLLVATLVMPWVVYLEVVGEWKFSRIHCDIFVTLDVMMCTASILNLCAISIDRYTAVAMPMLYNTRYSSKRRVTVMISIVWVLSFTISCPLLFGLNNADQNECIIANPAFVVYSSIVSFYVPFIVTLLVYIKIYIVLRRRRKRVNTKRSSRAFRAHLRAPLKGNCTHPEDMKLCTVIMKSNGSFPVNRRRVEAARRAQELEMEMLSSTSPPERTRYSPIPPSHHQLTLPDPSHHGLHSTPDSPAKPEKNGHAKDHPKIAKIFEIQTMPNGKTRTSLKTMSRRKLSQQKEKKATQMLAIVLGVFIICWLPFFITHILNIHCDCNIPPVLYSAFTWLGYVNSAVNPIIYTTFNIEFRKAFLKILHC
Background: A change in cytosolic calcium serves as a functional read-out for many receptors and channels.
`CCCN(c1ccc(C(C)C)cc1)S(=O)(=O)c1ccc2c(c1)oc(=O)n2CC(=O)OCC`: the inhibition amounted to 13.1%. The result for `COc1cccc(Cn2c(CNS(=O)(=O)c3ccc(C(C)(C)C)cc3)nc3cccnc32)c1` reads 24.1%; that for `COc1ccc(-n2c(=O)c3ccccc3n(Cc3cccc(C)c3)c2=O)cc1`, -9.2%; that for `COc1ccc(-c2nc(CNC(=O)Nc3ccccc3)c(C)o2)cc1`, -12.4%.

Turning to `CCC(C)NC(=O)Cn1c(=O)n(-c2ccc(C)c(C)c2)c(=O)c2c3c(sc21)CCCCC3` (stereo unspecified), the inhibition was -7.54%.

Turning to `COc1ccc(OC)c(NC(=O)c2cc(S(=O)(=O)NCCc3ccc(Cl)cc3)ccc2F)c1`, the inhibition was 8.67%. `CCOc1ccc(OCC)c(NC(=O)c2ccc(-c3ccccc3)s2)c1`: the inhibition was -2.01%. The result for `Cc1nc2nc(SCC(=O)NC3CCC(C)CC3)nn2c(C)c1Cc1ccccc1` (stereo unspecified) reads 6.69%; that for `CCCCc1nn2c(=O)cc(COC(=O)C3CCCCC3)nc2s1`, -0.864%. The result for `COC(=O)c1ccc(-c2nc3cc(NC(C)=O)ccc3o2)cc1` reads 6.66%; that for `CCOc1ccc(CCNC(=O)c2sc3ncccc3c2-n2cccc2)cc1OCC`, -14.9%; that for `Cc1cccc(NC(=O)C(=O)NCC(c2cccnc2)N2CCc3ccccc3C2)c1C` (stereo unspecified), 9.66%. As to `CCOc1ccc(NC(=O)c2ccc(F)c(S(=O)(=O)N(CC)Cc3ccccc3)c2)cc1`, the inhibition amounted to 6.09%. For the compound `CCOC(=O)c1scc(-c2ccc(C)cc2)c1S(=O)(=O)N1CCN(c2ccccc2F)CC1`, the inhibition is -10.4%.

Consider `O=C(CCC1N=C2c3ccccc3N=C(SCc3cccc(F)c3)N2C1=O)NCc1cccs1` (stereo unspecified), for which the inhibition stood at 11.3%. In the case of `Cc1ccc(Cl)cc1N1CCN(C(=O)CCNS(=O)(=O)c2ccc3c(c2)CCN3C(=O)C2CC2)CC1`, the inhibition was -2.85%.

Consider `Cc1ccc(NC(=O)NCc2cccn2Cc2ccccc2)c(C)c1`, for which the inhibition turned out to be 8.66%. As for `CCCCCSc1ncnc2c1sc1nc(N3CCOCC3)c3c(c12)CCCC3`, the inhibition came out at 1.92%. The result for `CCOc1ccc(N2CC(c3nc4ccccc4n3Cc3ccccc3F)CC2=O)cc1` (stereo unspecified) reads -2.78%. Regarding `COc1ccc(-c2nnc(SCC(=O)NC3CCCC3)nc2-c2ccc(OC)c(OC)c2)cc1OC`, the inhibition amounted to 23.6%. With `COc1cccc(OC)c1C(=O)Nc1cccc(-c2cn3ccsc3n2)c1`, the inhibition is -4.76%. The same measure for `O=C(NCc1ccccc1)C1CCN(S(=O)(=O)c2ccc3c(c2)CCCN3C(=O)C2CCC2)CC1`: 10%. Take `Cc1ccc(N2CC(NC(=O)c3ccc(S(=O)(=O)N4CCCC4)cc3)CC2=O)cc1C` (stereo unspecified): the inhibition turned out to be 22.9%.

For `Cc1cc(C)cc(-n2ccn(CC(=O)Nc3cc(C)ccc3C)c(=O)c2=O)c1`, the inhibition was -4.31%. The result for `CCn1cc(C(=O)NCCCN2CCCC(C)C2)c(=O)c2cc(S(=O)(=O)N(C)C3CCCCC3)ccc21` (stereo unspecified) reads -8.66%; that for `CCOC(=O)c1c(S(=O)(=O)N2CCCC(C(=O)NCc3cccc(OC)c3)C2)c(C)n(C)c1C` (stereo unspecified), -9.55%.

Regarding `Cc1ccc(-c2cn(-c3cccc(Cl)c3)c(S(=O)(=O)CC(=O)Nc3cccc(C)c3)n2)cc1`, the inhibition is -5.74%.

Regarding `Cc1cccc(CS(=O)(=O)Cc2ccc(C(=O)NCCc3ccccc3)o2)c1`, the inhibition turned out to be 24.5%.

As for `COc1ccc(CCNc2nc(-c3ccc(OC)c(OC)c3)cc(C(F)(F)F)n2)cc1OC`, the inhibition was -5.42%. The same measure for `OC(CNCC1COc2ccccc2O1)COc1ccccc1F` (stereo unspecified): active: 95.6%; for `CCc1ccccc1NC(=O)CN1C(=O)c2ccccc2Sc2ncccc21`: 2.75%. Turning to `NC(=O)C1(N2CCCCC2)CCN(C(=O)Nc2ccc(F)cc2)CC1`, the inhibition is -10.1%.

Regarding `CCCNC(=O)c1ccc2c(c1)sc1nc(-c3ccc(C)cc3)cn12`, the inhibition was -2.6%.

Consider `O=C(CNC(=O)c1ccccc1)OCc1cc(=O)n2ccsc2n1`, for which the inhibition is 3.55%. Regarding `Cc1ccc(C)c(N2CCN(C(=O)C3CCCN(Cc4nc(-c5cccc(Cl)c5)oc4C)C3)CC2)c1` (stereo unspecified), the inhibition was determined as 2.23%. The same measure for `CC1CCn2c(nc3cc(C(=O)NCc4ccccc4)ccc32)C1` (stereo unspecified): -6.49%; for `CC(=O)c1ccc(NC(=O)c2cc(S(=O)(=O)N3CCCCCC3)cn2C)cc1`: -4.15%.

`Cc1ccc(NC(=O)CCCc2nnc3n(C)c(=O)c4sccc4n23)cc1F`: the inhibition was -14.1%. The result for `COc1ccc(-c2nc3c(c(SCC(=O)Nc4ccccc4F)n2)Cc2cc(C)ccc2O3)cc1` reads -6.9%; that for `O=C(NCc1ccc(F)cc1)c1ccc2nc(N3CCCCC3)sc2c1`, -6.74%. As for `Cc1ccc(NC(=O)CCC(=O)N2Cc3ccccc3Oc3ncccc32)cc1F`, the inhibition was determined as 5.36%.

Consider `Cc1cccc(Cn2c(=O)n(CCC(=O)NCCc3ccc(Cl)cc3)c(=O)c3sccc32)c1`, for which the inhibition is -25.6%. The result for `CCOc1ccc(NC(=O)c2ccc3c(c2)CCN3S(=O)(=O)c2ccc(Cl)cc2)cc1` reads 0.178%. The result for `Cc1cc(-c2ccc(C)c(S(=O)(=O)NCC3CCN(Cc4ccc(F)cc4)CC3)c2)on1` reads 15.1%. The result for `O=C(NCC(c1ccc2c(c1)OCO2)N1CCOCC1)C(=O)Nc1cccc(Cl)c1` (stereo unspecified) reads -15.4%; that for `COc1ccc(OC)c(CNC(=O)c2nn(C)c3c2CSc2ccccc2-3)c1`, 5.8%; that for `Fc1cccc(Cl)c1Cn1c(-c2cccs2)nc2ccccc21`, -3.12%. In the case of `CCCn1cc(S(=O)(=O)c2ccc(CC)cc2)c(=O)c2cc(F)c(N(CC)CC)cc21`, the inhibition is 8.11%.

For `Cn1c(=O)c2c(-c3ccccc3)n3c(c2n(C)c1=O)C(c1ccco1)Nc1ccccc1-3` (stereo unspecified), the inhibition was -7.62%. On to `COc1ccc(Cl)cc1CNCCSc1nnnn1C`, for which the inhibition is -14.2%. On to `COc1ccc(C(=O)Nc2nc3c(s2)CCCC3)cc1Cl`, for which the inhibition was determined as 24.3%.

As for `CCOc1ccc(CNC(=O)c2cc(=O)[nH]c3ccc(S(=O)(=O)N4CCCC4)cc23)cc1`, the inhibition was -3.52%. Turning to `Cc1cccc(N2CCN(C(=O)c3ccc4c(c3)N(Cc3cccc(Cl)c3)C(=O)c3ccccc3S4=O)CC2C)c1` (stereo unspecified), the inhibition amounted to 8.16%. For `Cc1cc(C)cc(NC(=O)CCCn2c3ccccc3c(=O)c3ccccc32)c1`, the inhibition was 5.22%. The same measure for `Cc1cc(Cl)ccc1OCC(O)CN1C(C)CCCC1C` (stereo unspecified): active: 31.2%.

Turning to `CCc1cc(=O)oc2cc(C)cc(OCC(=O)N3CCC(C(=O)NC(C)C)(c4ccccc4)CC3)c12`, the inhibition was active: 53.1%. Take `CC(=O)c1ccc(N2CCN(C(=O)CCCCn3c(=O)[nH]c4ccccc4c3=O)CC2)cc1`: the inhibition was -10.3%. The same measure for `Cc1cccc(C(=O)N2CCc3cc(CNC(=O)c4ccnn4C)ccc32)c1`: -15.1%; for `CCOc1ccccc1NC(=O)Cc1coc2c(C)c(C)ccc12`: 20.7%; for `COc1ccc(NC(=O)c2c(C(=O)Nc3ccccc3)sc3nc(C)cc(=O)n23)cc1`: 6.06%.

As for `CCOc1ccccc1NC(=O)CN1C(=O)COc2ccc(S(=O)(=O)N3CCCCCC3)cc21`, the inhibition was determined as 2.74%. `N#C/C(=C\c1ccc(F)cc1)C(=O)NCC1CCCO1` (stereo unspecified): the inhibition is 18.3%. The result for `Cn1cnc(S(=O)(=O)N2CCCC(C(=O)NCc3ccccc3Cl)C2)c1` (stereo unspecified) reads 14.5%. The same measure for `Cc1cc(=O)[nH]c2nnc(SCc3ccc(Cl)c(Cl)c3)n12`: 10.9%; for `COc1cccc(NC(=O)CSc2cc(=O)n(C)c3ccc(Cl)cc23)c1`: 2.34%. The result for `CCOC(=O)N1CCc2c(sc(NCc3sccc3C)c2C(=O)Nc2cc(OC)ccc2OC)C1` reads 1.27%; that for `CCCCN(C)CCCNC(=O)CN1C(=O)COc2ccc(S(=O)(=O)N3CCC(C)CC3)cc21`, -6.52%. In the case of `CCCCNC(=O)C1CCN(C(=O)N2CC(C)Oc3ccc(Cl)cc32)CC1` (stereo unspecified), the inhibition was -10.1%. The result for `CCOc1ccccc1-n1c(C)nc2cc(C(=O)O)ccc21` reads -4.33%. The result for `Cc1nc2c(C(=O)NCc3ccccc3Cl)c[nH]n2c(=O)c1Cc1cccc(Cl)c1` reads -18.6%; that for `Cc1c(Cl)cccc1NC(=O)CC(c1cccs1)N1Cc2ccccc2C1=O` (stereo unspecified), -7.13%.

On to `CC(NC(=O)CSc1n[nH]c(-c2ccccc2Cl)n1)c1nc2ccccc2n1C` (stereo unspecified), for which the inhibition was -12.8%. The same measure for `CCOc1ccc(NC(=O)CN2CCN(Cc3ccccc3)S2(=O)=O)cc1`: 4.71%; for `CN(CCOCCOc1ccc(Cl)cc1Br)Cc1ccccc1`: active: 39.9%. Take `COc1c(C)cc(S(=O)(=O)Nc2cccc(-c3ccc(N4CCOCC4)nn3)c2)c(C)c1C`: the inhibition was -2.39%. As for `CCOC(=O)c1cccc(NC(=O)CC(c2cc(OC)c(OC)c(OC)c2)N2Cc3ccccc3C2=O)c1` (stereo unspecified), the inhibition worked out at 1.31%. In the case of `CCN(CC)CCn1c(=S)[nH]c2cc(C(=O)NCc3ccc(C)cc3)ccc2c1=O`, the inhibition is active: 36.4%. In the case of `CCc1nn2c(-c3ccccc3OC)ccnc2c1-c1ccc(F)cc1`, the inhibition was determined as 26.1%. Turning to `CCn1c(=NC(=O)c2ccc(S(=O)(=O)N3CCCCC3)cc2)sc2cccc(OC)c21`, the inhibition turned out to be 15.6%. The same measure for `COc1ccccc1-c1cc(C(=O)NCc2cccs2)no1`: active: 75.5%. The same measure for `COC(=O)c1ccc(NC(=O)CCc2c(C)nc3c(c(C)nn3-c3ccc(C)cc3)c2C)cc1`: -2.05%; for `Cc1cccc(NC(=O)c2oc3c(c2C)-c2[nH]ncc2CC3)c1C`: 20%; for `COc1ccc(CCNc2nc(-c3ccc(C)cc3)cc(C(F)F)n2)cc1OC`: 13.1%. The result for `CCOC(=O)C1CCN(c2c(C(=O)c3ccc(OCC)cc3)cnc3ccc(OC)cc23)CC1` reads 5.92%; that for `Clc1cccc2c1Sc1ccccc1CC2N1CCNCC1` (stereo unspecified), active: 65.8%.

Take `CC1=C(C(N)=O)C(c2ccc(C(C)C)cc2)n2nc(SCc3ccccc3)nc2N1` (stereo unspecified): the inhibition was 7%.

`COc1ccc(CCNC(=O)c2ccc3c(c2)N(Cc2ccc(C)cc2)CCS3)cc1OC`: the inhibition is -5.47%.

As to `Cc1cc(C)n2nc(SCC(=O)Nc3cc(Cl)ccc3C)nc2n1`, the inhibition was 2.55%. The same measure for `CCOc1ccc(S(=O)(=O)N(CC(=O)Nc2cccnc2)c2ccccc2)cc1`: -24.1%. Turning to `Cc1cc(N2CCN(C)CC2)nc2ccc(NC(=O)Nc3ccccc3Br)cc12`, the inhibition came out at 19.6%. `COc1ccc2c(c1)cc(CNc1ccc(OC)c(OC)c1)c(=O)n2CC(=O)Nc1ccc(F)cc1`: the inhibition is 11.3%. The same measure for `COc1ccccc1CNC(=O)CCc1c(C)c2ccc(OC)c(C)c2oc1=O`: 11.3%. As for `Cc1c(C(=O)Nc2ccc(F)c(F)c2)oc2ccc(S(=O)(=O)N3CCCCC3)cc12`, the inhibition is 4.45%. With `O=S(=O)(NCC(c1ccco1)S(=O)(=O)c1ccccc1)c1ccccc1` (stereo unspecified), the inhibition was 3.22%. `COc1ccc(N2CCN(C(=O)CCc3c(C)nc4c(-c5ccccc5)c(C)nn4c3C)CC2)cc1`: the inhibition turned out to be 5.75%. The result for `COc1ccc(CNC(=O)Cn2c(=O)oc3cc(S(=O)(=O)N4CCCCCC4)ccc32)cc1` reads 4.72%.

Values taken from PubChem BioAssay AID485344 (National Center for Advancing Translational Sciences (NCATS), 2010).
